Reference: PMC9726891
No constants are given. Whether binding was seen depends on the method and setting. Binding seen in cells or lysates may run through a third protein. Some binding calls cover weakened binding; strength is not graded here. For some of these results: Tags and fused reporters may be left off the sequences shown. One block for each substance: values may come before it.

Amino acid sequences for entries named in this document (tags omitted).
UniProt Q04089: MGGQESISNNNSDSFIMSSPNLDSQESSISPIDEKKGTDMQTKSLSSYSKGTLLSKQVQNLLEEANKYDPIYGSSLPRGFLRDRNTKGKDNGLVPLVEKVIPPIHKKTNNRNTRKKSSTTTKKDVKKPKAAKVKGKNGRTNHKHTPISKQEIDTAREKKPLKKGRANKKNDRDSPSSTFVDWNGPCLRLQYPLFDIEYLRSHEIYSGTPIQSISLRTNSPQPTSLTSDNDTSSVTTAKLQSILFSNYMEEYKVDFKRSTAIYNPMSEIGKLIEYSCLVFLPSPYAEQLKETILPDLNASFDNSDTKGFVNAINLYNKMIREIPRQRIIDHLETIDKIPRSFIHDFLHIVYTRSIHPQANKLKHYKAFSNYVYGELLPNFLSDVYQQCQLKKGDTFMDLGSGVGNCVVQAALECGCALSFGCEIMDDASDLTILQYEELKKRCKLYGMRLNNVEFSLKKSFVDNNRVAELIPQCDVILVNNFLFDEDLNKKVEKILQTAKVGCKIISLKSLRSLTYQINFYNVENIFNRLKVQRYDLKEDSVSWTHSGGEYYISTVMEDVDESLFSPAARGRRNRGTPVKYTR
UniProt P10659: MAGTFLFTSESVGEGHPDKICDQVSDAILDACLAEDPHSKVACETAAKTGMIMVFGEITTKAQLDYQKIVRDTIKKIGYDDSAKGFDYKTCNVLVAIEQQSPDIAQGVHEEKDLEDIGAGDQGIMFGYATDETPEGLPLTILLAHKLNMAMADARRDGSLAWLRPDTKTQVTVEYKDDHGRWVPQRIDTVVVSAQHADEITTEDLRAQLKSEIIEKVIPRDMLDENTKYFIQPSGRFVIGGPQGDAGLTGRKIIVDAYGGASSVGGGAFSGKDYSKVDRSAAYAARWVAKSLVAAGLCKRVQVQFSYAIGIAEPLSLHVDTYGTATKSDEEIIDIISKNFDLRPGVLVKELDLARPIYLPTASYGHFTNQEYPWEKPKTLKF
UniProt P11978: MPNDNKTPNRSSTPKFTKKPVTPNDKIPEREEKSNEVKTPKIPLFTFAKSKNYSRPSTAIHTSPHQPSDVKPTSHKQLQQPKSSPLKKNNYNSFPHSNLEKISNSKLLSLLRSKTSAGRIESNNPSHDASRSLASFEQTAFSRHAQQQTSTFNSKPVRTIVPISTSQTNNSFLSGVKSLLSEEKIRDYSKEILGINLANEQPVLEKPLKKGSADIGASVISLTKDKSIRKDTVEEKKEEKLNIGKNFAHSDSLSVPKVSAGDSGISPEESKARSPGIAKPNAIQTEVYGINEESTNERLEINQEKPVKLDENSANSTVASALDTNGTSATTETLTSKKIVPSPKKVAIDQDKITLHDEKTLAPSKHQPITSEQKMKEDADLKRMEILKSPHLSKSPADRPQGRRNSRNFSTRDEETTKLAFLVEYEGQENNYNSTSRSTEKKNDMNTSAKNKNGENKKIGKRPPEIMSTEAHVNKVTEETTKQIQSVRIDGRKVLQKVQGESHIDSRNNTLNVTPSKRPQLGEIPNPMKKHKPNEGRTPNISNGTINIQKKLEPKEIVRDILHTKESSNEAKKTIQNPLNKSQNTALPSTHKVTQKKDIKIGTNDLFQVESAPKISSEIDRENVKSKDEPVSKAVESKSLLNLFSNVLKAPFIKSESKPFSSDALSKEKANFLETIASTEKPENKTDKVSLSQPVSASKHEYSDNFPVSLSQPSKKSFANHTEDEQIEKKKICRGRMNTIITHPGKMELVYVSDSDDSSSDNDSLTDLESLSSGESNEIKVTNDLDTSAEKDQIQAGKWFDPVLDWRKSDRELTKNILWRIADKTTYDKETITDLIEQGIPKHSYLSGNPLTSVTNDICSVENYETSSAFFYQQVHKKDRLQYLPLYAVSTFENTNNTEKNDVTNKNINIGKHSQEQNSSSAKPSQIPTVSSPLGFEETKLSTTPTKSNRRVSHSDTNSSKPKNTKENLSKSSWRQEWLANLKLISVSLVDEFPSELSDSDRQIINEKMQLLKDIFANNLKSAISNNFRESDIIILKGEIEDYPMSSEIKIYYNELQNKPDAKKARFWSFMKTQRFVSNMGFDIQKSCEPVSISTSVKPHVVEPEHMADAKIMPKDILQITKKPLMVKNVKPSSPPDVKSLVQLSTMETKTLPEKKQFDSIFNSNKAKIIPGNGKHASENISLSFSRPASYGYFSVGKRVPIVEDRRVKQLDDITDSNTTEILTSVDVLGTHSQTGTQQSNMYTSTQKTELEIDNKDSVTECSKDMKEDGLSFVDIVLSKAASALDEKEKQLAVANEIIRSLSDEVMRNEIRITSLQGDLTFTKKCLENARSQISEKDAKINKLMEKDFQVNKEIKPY
UniProt P06701: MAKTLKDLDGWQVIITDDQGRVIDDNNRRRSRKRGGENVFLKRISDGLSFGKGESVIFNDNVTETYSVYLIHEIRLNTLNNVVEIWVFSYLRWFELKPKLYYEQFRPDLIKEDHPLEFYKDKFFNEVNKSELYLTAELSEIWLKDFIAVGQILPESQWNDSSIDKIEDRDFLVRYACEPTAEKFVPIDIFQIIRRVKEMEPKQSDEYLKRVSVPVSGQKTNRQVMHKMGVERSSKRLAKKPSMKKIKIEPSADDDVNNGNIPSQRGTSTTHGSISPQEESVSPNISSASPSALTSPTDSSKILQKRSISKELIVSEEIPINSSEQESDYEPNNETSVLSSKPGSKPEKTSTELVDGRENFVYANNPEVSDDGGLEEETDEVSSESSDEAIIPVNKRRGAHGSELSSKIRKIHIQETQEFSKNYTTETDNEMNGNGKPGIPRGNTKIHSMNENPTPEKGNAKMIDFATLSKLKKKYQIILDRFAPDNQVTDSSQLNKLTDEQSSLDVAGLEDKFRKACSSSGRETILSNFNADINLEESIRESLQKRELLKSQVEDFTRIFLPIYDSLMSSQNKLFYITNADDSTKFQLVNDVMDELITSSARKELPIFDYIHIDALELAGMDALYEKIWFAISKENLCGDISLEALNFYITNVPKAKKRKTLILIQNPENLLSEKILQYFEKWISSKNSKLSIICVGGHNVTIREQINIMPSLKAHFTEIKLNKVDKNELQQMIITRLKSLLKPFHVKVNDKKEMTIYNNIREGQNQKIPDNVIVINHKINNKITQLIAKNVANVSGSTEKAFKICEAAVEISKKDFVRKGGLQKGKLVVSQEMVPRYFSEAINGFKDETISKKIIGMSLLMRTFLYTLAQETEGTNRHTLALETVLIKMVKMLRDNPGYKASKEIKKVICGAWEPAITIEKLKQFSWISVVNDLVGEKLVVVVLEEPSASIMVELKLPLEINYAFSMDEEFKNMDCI
UniProt P06700: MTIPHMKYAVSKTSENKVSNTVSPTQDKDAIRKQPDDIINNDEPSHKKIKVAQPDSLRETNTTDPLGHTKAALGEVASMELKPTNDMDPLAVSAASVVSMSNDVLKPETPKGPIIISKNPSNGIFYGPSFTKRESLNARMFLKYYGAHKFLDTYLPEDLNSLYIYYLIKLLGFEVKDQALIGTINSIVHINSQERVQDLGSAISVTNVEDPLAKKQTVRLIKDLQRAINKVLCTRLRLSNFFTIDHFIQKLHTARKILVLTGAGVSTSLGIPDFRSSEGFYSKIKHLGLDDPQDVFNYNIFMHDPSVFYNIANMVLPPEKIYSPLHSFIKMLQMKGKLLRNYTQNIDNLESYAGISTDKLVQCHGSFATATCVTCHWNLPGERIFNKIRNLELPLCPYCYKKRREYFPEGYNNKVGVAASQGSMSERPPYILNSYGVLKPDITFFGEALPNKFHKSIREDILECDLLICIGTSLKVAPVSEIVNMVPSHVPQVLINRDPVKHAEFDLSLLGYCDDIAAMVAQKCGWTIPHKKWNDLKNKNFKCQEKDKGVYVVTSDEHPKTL

What was measured:
[1] = target: Unmodified H3 (1–23) peptide; experiment: pull-down; 1.0 µg biotinylated histone peptide incubated with 0.5 ml yeast whole cell extract in 50 mM Tris-HCl pH 7.5, 250 mM NaCl, 0.1% NP-40, overnight at 4 °C; Streptavidin beads; immunoblot; only the target purified
[2] = target: T1, Reb1 (endogenously expressed, tag not stated) (S. cerevisiae (endogenous in yeast)) (UniProt P21538); experiment: co-IP; Dot1 and Reb1 (Supplementary Fig. 9d); bait and tags not given
T1 sequence: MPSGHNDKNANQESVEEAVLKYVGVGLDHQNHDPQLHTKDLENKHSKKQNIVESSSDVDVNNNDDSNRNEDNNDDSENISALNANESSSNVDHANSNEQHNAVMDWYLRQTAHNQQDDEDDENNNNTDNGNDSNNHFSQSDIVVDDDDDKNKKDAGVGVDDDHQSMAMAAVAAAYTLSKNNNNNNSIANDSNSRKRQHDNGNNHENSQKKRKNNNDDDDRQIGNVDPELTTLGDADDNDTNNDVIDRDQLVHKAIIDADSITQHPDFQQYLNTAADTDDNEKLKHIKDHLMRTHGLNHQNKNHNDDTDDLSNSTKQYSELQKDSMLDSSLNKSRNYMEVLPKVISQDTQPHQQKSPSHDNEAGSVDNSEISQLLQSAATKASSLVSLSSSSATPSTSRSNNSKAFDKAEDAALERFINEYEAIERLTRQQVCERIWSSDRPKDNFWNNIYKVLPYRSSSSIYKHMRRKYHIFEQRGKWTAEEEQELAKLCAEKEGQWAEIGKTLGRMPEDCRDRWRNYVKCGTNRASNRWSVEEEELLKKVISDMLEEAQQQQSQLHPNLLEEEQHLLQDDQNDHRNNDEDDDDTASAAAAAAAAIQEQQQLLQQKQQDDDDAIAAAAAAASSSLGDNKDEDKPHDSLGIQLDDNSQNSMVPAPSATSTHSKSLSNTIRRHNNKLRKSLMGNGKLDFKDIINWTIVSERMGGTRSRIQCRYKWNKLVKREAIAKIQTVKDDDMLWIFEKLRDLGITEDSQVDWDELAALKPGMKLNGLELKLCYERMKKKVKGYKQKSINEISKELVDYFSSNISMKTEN

[3] = target: T2, pyruvate kinase Pyk1 (S. cerevisiae (endogenous in yeast)) (UniProt P00549); experiment: co-IP; endogenous Pyk1 immunoprecipitated with anti-Pyk1 antibody from yeast cell extract
T2 sequence: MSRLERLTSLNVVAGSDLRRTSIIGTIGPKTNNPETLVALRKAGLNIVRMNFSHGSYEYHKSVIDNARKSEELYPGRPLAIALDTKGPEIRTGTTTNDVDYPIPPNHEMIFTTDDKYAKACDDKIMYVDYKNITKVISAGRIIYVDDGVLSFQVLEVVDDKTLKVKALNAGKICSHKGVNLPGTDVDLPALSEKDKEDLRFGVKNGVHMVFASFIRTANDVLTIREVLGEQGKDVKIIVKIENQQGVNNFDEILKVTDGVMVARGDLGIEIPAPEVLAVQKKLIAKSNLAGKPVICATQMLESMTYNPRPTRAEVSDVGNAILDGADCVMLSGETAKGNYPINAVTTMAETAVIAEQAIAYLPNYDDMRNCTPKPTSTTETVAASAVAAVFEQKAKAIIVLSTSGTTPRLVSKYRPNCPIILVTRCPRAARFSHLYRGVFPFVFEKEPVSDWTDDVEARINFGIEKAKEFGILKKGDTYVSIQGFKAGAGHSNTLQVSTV

[4] = target: T3, tandem affinity purification (TAP)-tagged Reb1 (Reb1-TAP) (S. cerevisiae (endogenous in yeast)) (UniProt P21538); experiment: co-IP; Reb1-TAP immunoprecipitated with calmodulin beads from MNase-digested whole cell extract; 10 mM Tris pH 8.0, 150-350 mM NaCl, 2 mM CaCl2, 0.1% NP-40, 4 h at 4 °C
T3 sequence: T1 sequence

[5] = target: T1, Reb1 (endogenously expressed, tag not stated) (S. cerevisiae (endogenous in yeast)); experiment: co-IP; Reb1 and Sir2, Sir3, Sir4 (Supplementary Fig. 9e, f); bait and tags not given

- binding [1]: binds
- binding [2]: no binding
Substance: Dot1 (in yeast cell extract, tag not stated) (from UniProt Q04089 1-582) (enzyme)

- binding [3]: binds
- binding [4]: binds
Substance: Sam1 (from UniProt P10659 1-382) (enzyme)

- binding [5]: no binding
Substance: Sir4 (in yeast cell extract, tag not stated) (from UniProt P11978 1-1358)

- binding [5]: no binding
Substance: Sir3 (in yeast cell extract, tag not stated) (from UniProt P06701 1-978)

- binding [5]: no binding
Substance: Sir2 (in yeast cell extract, tag not stated) (from UniProt P06700 1-562) (enzyme)
